± gives the uncertainty stated by the source. Whole data set: some 9,900 compounds, median “viability index relative to DMSO control” near 1, cut for the lowest 2% near 0.85. The list shows a part of the results.

From the supplement of paper PMC4723716 come the findings set out here.

The experiment concerns Plasmodium falciparum NF54 stage V gametocytes. Nature of the experiment: viability index relative to DMSO control (fraction); higher = less gametocyte killing. Particulars: 2.5 µM, library set: Broad Institute DOS, incubation time: 72 h. As to the method: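 Broad DOS informer set and blood-stage-active DOS compounds screened in duplicate at 2.5 µM against P. falciparum NF54 stage V gametocytes with the serum-free one-step SaLSSA (1536-well): 72 h at 37 °C under low oxygen, then saponin lysis and MitoTracker Red CMXRos staining, with high-content imaging. Viability index = viable-object count divided by the plate mean of DMSO wells (0 = killed, about 1 = inactive).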
`O=C(Cc1ccncc1)N1CCCCN2[C@H](CO)[C@H](c3ccc(C#Cc4ccccc4F)cc3)[C@H]2C1`: the viability index turned out to be 1.02 ± 0.013. `O=C(Cc1ccncc1)N1CCCCN2[C@H](CO)[C@H](c3ccc(C#Cc4ccccc4F)cc3)[C@@H]2C1`: the viability index came out at 0.9873 ± 0.0041. Next, `COc1cccc(CN2CC3(C2)[C@H](c2ccccc2)[C@H](CO)N3C(=O)Cc2ccccc2)c1`: 1 ± 0.064. Consider `COC(=O)[C@H]1[C@H](CO)[C@H]2Cn3c(ccc(-c4ccc(F)cc4)c3=O)[C@@H]1N2C(=O)c1ccccc1F`, for which the viability index stood at 1.06 ± 0.054. Next, `CN(C)CC#Cc1ccc([C@@H]2[C@H](CO)N3CCCCN(C(=O)Cc4ccccn4)C[C@@H]23)cc1`: 0.951 ± 0.028; `C/C=C/c1ccc([C@H]2[C@@H]3CN(C(=O)CN(C)C)C[C@H]2N3)cc1`: 1.02 ± 0.012. On to `COC(=O)[C@@H]1[C@@H](CO)[C@@H]2Cn3c(ccc(-c4cccc(C(=O)N(C)C)c4)c3=O)[C@H]1N2C(=O)NC(C)C`, for which the viability index worked out at 1.07 ± 0.068. Next, `CCCNC(=O)N1[C@@H]2Cn3c(ccc(-c4ccccc4OC)c3=O)[C@H]1[C@@H](C(=O)OC)[C@@H]2CO`: 1.068 ± 0.01.

`C[C@H](CO)N1C[C@H](C)[C@@H](CN(C)C(=O)Oc2ccc3ccccc3c2)OCc2cn(nn2)CCCC1=O` had a viability index of 1.036 ± 0.0031. Next, `CN1c2ccc(Br)cc2[C@H]2NCC[C@H]2[C@H]1CO`: 1.095 ± 0.0031; `O=C(Cc1ccncc1)N1CCCCN2[C@H](CO)[C@@H](c3ccc(C#Cc4ccccc4F)cc3)[C@H]2C1`: 0.905 ± 0.07; `O=C(O)[C@@H]1[C@@H](CO)[C@@H]2Cn3c(ccc(-c4ccncc4)c3=O)[C@H]1N2S(=O)(=O)c1ccccc1F`: 0.996 ± 0.044.

Consider `CN(C)CC#Cc1ccc([C@@H]2[C@H]3CN(C(=O)Cc4ccccn4)CCCCN3[C@H]2CO)cc1`, for which the viability index came out at 1.03 ± 0.11.

Compound `C[C@@H]1CN([C@H](C)CO)C(=O)CCCn2cc(nn2)CO[C@H]1CN(C)C(=O)Oc1ccc2ccccc2c1` gave a viability index of 0.995 ± 0.059. Next, `C[C@@H]1CN([C@@H](C)CO)C(=O)CCCn2cc(nn2)CO[C@H]1CN(C)C(=O)Oc1ccc2ccccc2c1`: 1.09 ± 0.029; `COc1cccc(-c2ccc([C@H]3[C@H](CO)N4CCCCN(C(=O)Cc5ccncc5)C[C@@H]34)cc2)c1`: 0.976 ± 0.028; `C[C@H]1CN([C@@H](C)CO)C(=O)CCCn2nncc2CO[C@@H]1CN(C)C(=O)Oc1cccc2ccccc12`: 0.965 ± 0.051. Next, `C/C=C/c1ccc([C@H]2[C@@H]3CN(Cc4cncnc4)C[C@H]2N3)cc1`: 1.11 ± 0.064; `OC[C@@H]1Nc2ccc(C#Cc3cccnc3)cc2[C@@H]2NCC[C@H]12`: 1.21 ± 0.09; `C[C@@H]1CN([C@@H](C)CO)C(=O)CCCn2nncc2CO[C@@H]1CN(C)C(=O)Oc1cccc2ccccc12`: 1.04 ± 0.071. Next, `COC(=O)[C@@H]1[C@@H](CO)[C@@H]2Cn3c(ccc(-c4ccc(F)cc4)c3=O)[C@H]1N2C(=O)c1ccccc1F`: 1.08 ± 0.048.

`O=C([C@@H]1N[C@@H]2c3cccc(=O)n3C[C@@H]2[C@H]1CO)N1CCCCC1` registered a viability index of 1.037 ± 0.003.

`C/C=C/c1ccc([C@@H]2[C@@H]3CN(C(=O)CN(C)C)C[C@H]2N3)cc1` displayed a viability index of 1.069 ± 0.0072. Compound `CN(C)CC#Cc1ccc([C@@H]2[C@@H](CO)N3CCCCN(C(=O)Cc4ccccn4)C[C@@H]23)cc1` yielded a viability index of 1.03 ± 0.026. Next, `O=C1CNC[C@@H]2[C@@H](c3ccc(Br)cc3)[C@H](CO)N12`: 1 ± 0.0036; `C/C=C/c1ccc([C@@H]2[C@H]3CNC[C@@H]2N3CC2CC2)cc1`: 1.03 ± 0.025.

The compound `COc1ccccc1CN1[C@H](CO)[C@H](c2ccccc2)C12CN(C(=O)Cc1ccccc1)C2` had a viability index of 1.1 ± 0.048. Next, `O=C(Cc1ccncc1)N1CCCCN2[C@H](CO)[C@@H](c3ccc(C#Cc4ccccc4F)cc3)[C@@H]2C1`: 0.9619 ± 0.0014; `C[C@H](CO)N1C[C@H](C)[C@H](CN(C)C(=O)Oc2ccc3ccccc3c2)OCc2cn(nn2)CCCC1=O`: 0.995 ± 0.045. Next, `OC[C@H]1[C@@H]2c3ccccc3NC[C@@H]2N1Cc1cccnc1`: 0.941 ± 0.14. `O=C(O)C[C@H]1CC[C@@H]2NC[C@H](O)COC[C@H]2O1` displayed a viability index of 1.06 ± 0.016.
